Laboratory results published in a protein production outcome set (Wang et al. 2014).

Test: label from the status in PepcDB records

Q: With “MFVSHLSFPHLIEERKMKLSTLALAPITAALLTFNASAKGHDHDNQRAIFFPGETVQDTVKVEVEPSATQSLKLGQKINNLYERQFDNSQATVQKLGKNTYWIGVNYYNATVVVNEDSVLLIDPLGDGRIDALFKGVQSITNKPITTIMYSHYHLDHLGGGNQLVDLIKKNYPKVDKIRVIASQTVADKINQHAEVGENGVKTPKVPAPNDIYDLTKPQTVQFGSMKIKMMAPKGSGHTPDNTMILIPSDRVLHFADMINPDQLPFYNFAGAEHFHGYEEDLQSLLSKPLSKQWDFINGGHGNIGSKQDVKDLLEYIADIRTEVGKQLEVAPYTPVLSDGNHFVWFKRWQDEITNNVHTALANKYGHMYGFDSGVVETHAAMILADMIDH” as the sequence, how does the protein production read?
A: failed

Q: For “MGSASEQRVTLTNADKVLYPATGTTKSDIFDYYAGVAEVMLGHIAGRPATRKRWPNGVDQPAFFEKQLALSAPPWLSRATVAHRSGTTTYPIIDSATGLAWIAQQAALEVHVPQWRFVAEPGSGELNPGPATRLVFDLDPGEGVMMAQLAEVARAVRDLLADIGLVTFPVTSGSKGLHLYTPLDEPVSSRGATVLAKRVAQRLEQAMPALVTSTMTKSLRAGKVFVDWSQNSGSKTTIAPYSLRGRTHPTVAAPRTWAELDDPALRQLSYDEVLTRIARDGDLLERLDADAPVADRLTRYRRMRDASKTPEPIPTAKPVTGDGNTFVIQEHHARRPHYDFRLECDGVLVSWAVPKNLPDNTSVNHLAIHTEDHPLEYATFEGAIPSGEYGAGKVIIWDSGTYDTEKFHDDPHTGEVIVNLHGGRISGRYALIRTNGDRWLAHRLKNQKDQKVFEFDNLAPMLATHGTVAGLKASQWAFEGKWDGYRLLVEADHGAVRLRSRSGRDVTAEYPQLRALAEDLADHHVVLDGEAVVLDSSGVPSFSQMQNRGRDTRVEFWAFDLLYLDGRALLGTRYQDRRKLLETLANATSLTVPELLPGDGAQAFACSRKHGWEGVIAKRRDSRYQPGRRCASWVKDKHWNTQEVVIGGWRAGEGGRSSGVGSLLMGIPGPGGLQFAGRVGTGLSERELANLKEMLAPLHTDESPFDVPLPARDAKGITYVKPALVAEVRYSEWTPEGRLRQSSWRGLRPDKKPSEVVRE”, which protein production is on record?
A: not failed

Q: Which protein production does the source give for “MGSASEQRVTLTNADKVLYPATGTTKSDIFDYYAGVAEVMLGHIAGRPATRKRWPNGVDQPAFFEKQLALSAPPWLSRATVAHRSGTTTYPIIDSATGLAWIAQQAALEVHVPQWRFVAEPGSGELNPGPATRLVFDLDPGEGVMMAQLAEVARAVRDLLADIGLVTFPVTSGSKGLHLYTPLDEPVSSRGATVLAKRVAQRLEQAMPALVTSTMTKSLRAGKVFVDWSQNSGSKTTIAPYSLRGRTHPTVAAPRTWAELDDPALRQLSYDEVLTRIARDGDLLERLDADAPVADRLTRYRRMRDASKTPEPIPTAKPVTGDGNTFVIQEHHARRPHYDFRLERDGVLVSWAVPKNLPDNTSVNHLAIHTEDHPLEYATFEGAIPSGEYGAGKVIIWDSGTYDTEKFHDDPHTGEVIVNLHGGRISGRYALIRTNGDRWLAHRLKNQKDQKVFEFDNLAPMLATHGTVAGLKASQWAFEGKWDGYRLLVEADHGAVRLRSRSGRDVTAEYPQLRALAEDLADHHVVLDGEAVVLDSSGVPSFSQMQNRGRDTRVEFWAFDLLYLDGRALLGTRYQDRRKLLETLANATSLTVPELLPGDGAQAFACSRKHGWEGVIAKRRDSRYQPGRRCASWVKDKHWNTQEVVIGGWRAGEGGRSSGVGSLLMGIPGPGGLQFAGRVGTGLSERELANLKEMLAPLHTDESPFDVPLPARDAKGITYVKPALVAEVRYSEWTPEGRLRQSSWRGLRPDKKPSEVVRE” here?
A: failed

Q: Which protein production does the source give for “MLPPGSNGTAYPGQFALYQQLAQGNAVGGSAGAPPLGPSQVVTACLLTLLIIWTLLGNVLVCAAIVRSRHLRANMTNVFIVSLAVSDLFVALLVMPWKAVAEVAGYWPFGAFCDVWVAFDIMCSTASILNLCVISVDRYWAISRPFRYKRKMTQRMALVMVGLAWTLSILISFIPVQLNWHRDQAASWGGLDLPNNLANWTPWEEDFWEPDVNAENCDSSLNRTYAISSSLISFYIPVAIMIVTYTRIYRIAQVQIRRISSLERAAEHAQSCRSSAACAPDTSLRASIKKETKVLKTLSVIMGVFVCCWLPFFILNCMVPFCSGHPEGPPAGFPCVSETTFDVFVWFGWANSSLNPVIYAFNADFQKVFAQLLGCSHFCSRTPVETVNISNELISYNQDIVFHKEIAAAYIHMMPNAVTPGNREVDNDEEEGPFDRMFQIYQTSPDGDPVAESVWELDCEGEISLDKITPFTPNGFH” here?
A: failed

Q: Which protein production does the source give for “MMENYKHTTVLLDEAVNGLNIRPDGIYIDGTFGRGGHSRLILSQLGEEGRLLAIDRDPQAIAVAKTIDDPRFSIIHGPFSALGEYVAERDLIGKIDGILLDLGVSSPQLDDAERGFSFMRDGPLDMRMDPTRGQSAAEWLQTAEEADIAWVLKTYGEERFAKRIARAIVERNREQPMTRTKELAEVVAAATPVKDKFKHPATRTFQAVRIWVNSELEEIEQALKSSLNVLAPGGRLSIISFHSLEDRIVKRFMRENSRGPQVPAGLPMTEEQLKKLGGRQLRALGKLMPGEEEVAENPRARSSVLRIAERTNA” here?
A: not failed

Q: Which protein production does the source give for “MNGVSEGTRGCSDRQPGVLTRDRSCSRKMNSSGCLSEEVGSLRPLTVVILSASIVVGVLGNGLVLWMTVFRMARTVSTVCFFHLALADFMLSLSLPIAMYYIVSRQWLLGEWACKLYITFVFLSYFASNCLLVFISVDRCISVLYPVWALNHRTVQRASWLAFGVWLLAAALCSAHLKFRTTRKWNGCTHCYLAFNSDNETAQIWIEGVVEGHIIGTIGHFLLGFLGPLAIIGTCAHLIRAKLLREGWVHANRPKRLLLVLVSAFFIFWSPFNVVLLVHLWRRVMLKEIYHPRMLLILQASFALGCVNSSLNPFLYVFVGRDFQEKFFQSLTSALARAFGEEEFLSSCPRGNAPRE” here?
A: failed
